# In the supplement of paper PMC4604168 (melanoma cell lines):
# Some of the results follow. Many values rest on one well or one pass, so single values are uncertain.
# Assays:
# Experiment in all cases: cell count relative to DMSO control; melanoma cells; higher = more viable cells
# MZ2-MEL = conditions: library dose: low library concentration; 72 h
# MeWo = conditions: library dose: low library concentration; 72 h
# RPMI7951 = conditions: library dose: low library concentration; 72 h
# RVH-421 = conditions: library dose: low library concentration; 72 h
# SkMel28 = conditions: library dose: low library concentration; 72 h
# SkMel30 = conditions: library dose: low library concentration; 72 h
# UACC62 = conditions: library dose: low library concentration; 72 h
# WM115 = conditions: library dose: low library concentration; 72 h
# WM1716 = conditions: library dose: low library concentration; 72 h
# WM1745 = conditions: library dose: low library concentration; 72 h
# WM3526 = conditions: library dose: low library concentration; 72 h
# WM3619 = conditions: library dose: low library concentration; 72 h
# WM451Lu = conditions: library dose: low library concentration; 72 h
# 501Mel = conditions: library dose: standard library concentration; 72 h
# A101D = conditions: library dose: standard library concentration; 72 h
# A2058 = conditions: library dose: standard library concentration; 72 h
# A375 = conditions: library dose: standard library concentration; 72 h
# SkMel5 = conditions: library dose: low library concentration; 72 h
# UACC257 = conditions: library dose: low library concentration; 72 h
structure (smiles),measurement,setting,value
"C[C@@H](N)c1ccc(C(=O)Nc2ccnc3[nH]ccc23)cc1 + C[C@]12O[C@H](C[C@]1(O)CO)n1c3ccccc3c3c4c(c5c6ccccc6n2c5c31)CNC4=O [Lestaurtinib] (first compound 0.4 µM, partner dose 0.004 µM)",cell count,MZ2-MEL,81.1%
same,cell count,MeWo,76.9%
same,cell count,RPMI7951,69.4%
same,cell count,RVH-421,68.8%
same,cell count,SkMel28,79.1%
same,cell count,SkMel30,109%
same,cell count,UACC62,85.2%
same,cell count,WM115,106%
same,cell count,WM1716,70.5%
same,cell count,WM1745,84.3%
same,cell count,WM3526,128%
same,cell count,WM3619,108%
same,cell count,WM451Lu,98.9%
"OCCn1cc(-c2cnc3nnn(Cc4ccc5ncccc5c4)c3n2)cn1 + C/C(O)=C(\C#N)C(=O)Nc1cc(Br)ccc1Br [LFM-A13] (first compound 5 µM, partner dose 10 µM)",cell count,501Mel,108%
same,cell count,A101D,85.9%
same,cell count,A2058,112%
same,cell count,A375,94.2%
"CC(=O)O[C@@]12CO[C@@H]1C[C@H](O)[C@@]1(C)C(=O)[C@H](O)C3=C(C)[C@@H](OC(=O)[C@H](O)[C@@H](NC(=O)OC(C)(C)C)c4ccccc4)C[C@@](O)([C@@H](OC(=O)c4ccccc4)[C@H]21)C3(C)C [Docetaxel] + O=C(Oc1ccc([N+](=O)[O-])cc1)N1CCC(C(O)(c2ccc3c(c2)OCO3)c2ccc3c(c2)OCO3)CC1 [JZL184] (first compound 0.0005 µM, partner dose 5 µM)",cell count,501Mel,55.3%
same,cell count,A101D,60.6%
same,cell count,A2058,9.74%
same,cell count,A375,53.9%
"Cc1ccc(NC(=O)c2cccc(N(C)C)c2)cc1NC(=O)c1ccc(O)cc1 + Cc1cc(SCc2sc(-c3ccc(C(F)(F)F)c(F)c3)nc2C)ccc1OCC(=O)O [GW0742] (first compound 2 µM, partner dose 2 µM)",cell count,MeWo,95.7%
same,cell count,RPMI7951,92.9%
same,cell count,RVH-421,108%
same,cell count,SkMel28,92.5%
same,cell count,SkMel30,76.3%
same,cell count,SkMel5,87.9%
same,cell count,UACC257,86.5%
same,cell count,UACC62,103%
same,cell count,WM115,104%
same,cell count,WM1716,116%
same,cell count,WM1745,83.9%
same,cell count,WM3526,99.6%
same,cell count,WM3619,97.6%
same,cell count,WM451Lu,105%
"COC(=O)c1sccc1S(=O)(=O)Nc1ccc(Nc2ccccc2)cc1OC + O=C(Oc1ccc([N+](=O)[O-])cc1)N1CCC(C(O)(c2ccc3c(c2)OCO3)c2ccc3c(c2)OCO3)CC1 [JZL184] (first compound 5 µM, partner dose 5 µM)",cell count,501Mel,76%
same,cell count,A101D,113%
same,cell count,A2058,96%
same,cell count,A375,102%
"CC[C@]1(O)C[C@H]2CN(CCc3c([nH]c4ccccc34)[C@@](C(=O)OC)(c3cc4c(cc3OC)N(C=O)[C@H]3[C@@](O)(C(=O)OC)[C@H](OC(C)=O)[C@]5(CC)C=CCN6CC[C@]43[C@@H]65)C2)C1 [vincristine] + C[C@]12O[C@H](C[C@]1(O)CO)n1c3ccccc3c3c4c(c5c6ccccc6n2c5c31)CNC4=O [Lestaurtinib] (first compound 0.0001 µM, partner dose 0.004 µM)",cell count,MZ2-MEL,85.1%
same,cell count,MeWo,89.3%
same,cell count,RPMI7951,51.2%
same,cell count,RVH-421,92.4%
same,cell count,SkMel28,67.9%
same,cell count,SkMel30,61.8%
same,cell count,UACC62,65.3%
same,cell count,WM115,49.7%
same,cell count,WM1716,45.8%
same,cell count,WM1745,87.8%
same,cell count,WM3526,54.4%
same,cell count,WM3619,44.1%
same,cell count,WM451Lu,50.5%
"C[C@]1(c2nc3c(C(N)=O)cccc3[nH]2)CCCN1 [Veliparib] + Cc1cc(SCc2sc(-c3ccc(C(F)(F)F)c(F)c3)nc2C)ccc1OCC(=O)O [GW0742] (first compound 7 µM, partner dose 10 µM)",cell count,501Mel,91.7%
same,cell count,A101D,87.8%
same,cell count,A2058,83.4%
same,cell count,A375,67.3%
"CC[C@]1(O)C[C@H]2CN(CCc3c([nH]c4ccccc34)[C@@](C(=O)OC)(c3cc4c(cc3OC)N(C=O)[C@H]3[C@@](O)(C(=O)OC)[C@H](OC(C)=O)[C@]5(CC)C=CCN6CC[C@]43[C@@H]65)C2)C1 [vincristine] + Cc1cc(SCc2sc(-c3ccc(C(F)(F)F)c(F)c3)nc2C)ccc1OCC(=O)O [GW0742] (first compound 0.0005 µM, partner dose 10 µM)",cell count,501Mel,84.1%
same,cell count,A101D,46.5%
same,cell count,A2058,19.9%
same,cell count,A375,106%
"Nc1ncn([C@H]2C[C@H](O)[C@@H](CO)O2)c(=O)n1 [decitabine] + Cc1cc(SCc2sc(-c3ccc(C(F)(F)F)c(F)c3)nc2C)ccc1OCC(=O)O [GW0742] (first compound 0.5 µM, partner dose 10 µM)",cell count,501Mel,86.2%
same,cell count,A101D,92.1%
same,cell count,A2058,76.5%
same,cell count,A375,119%
"NC(=O)c1ccc(N(C(N)=O)c2c(F)cccc2F)nc1-c1ccc(F)cc1F + C/C(O)=C(\C#N)C(=O)Nc1cc(Br)ccc1Br [LFM-A13] (first compound 2 µM, partner dose 10 µM)",cell count,501Mel,108%
same,cell count,A101D,118%
same,cell count,A2058,108%
same,cell count,A375,132%
"C=C(c1ccc(C(=O)O)cc1)c1cc2c(cc1C)C(C)(C)CCC2(C)C [Bexarotene] + O=C(Oc1ccc([N+](=O)[O-])cc1)N1CCC(C(O)(c2ccc3c(c2)OCO3)c2ccc3c(c2)OCO3)CC1 [JZL184] (first compound 10 µM, partner dose 5 µM)",cell count,501Mel,104%
same,cell count,A101D,105%
same,cell count,A2058,94%
same,cell count,A375,94.8%
